The supplement of paper PMC10441789
This is one part of the list. Antibody binding of pooled human sera (four to six donors per pool; dilution not stated) to peptides of the Trypanosoma cruzi antigen TSSA on microarrays. Quantile-normalised fluorescence in arbitrary units, mean of duplicate arrays; higher = more binding. No active / inactive call. The uninfected pools are read here as the healthy donors of the same country. The strongest signals lie near the top of the scale (about 60,000).

How the values were obtained:
Test in all cases: antibody binding signal (normalised fluorescence) (arbitrary fluorescence units); higher = stronger serum antibody binding to peptide
[1] = system: pooled sera of chronic Chagas disease patients, Argentina
Method: (§1)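 Microarray of 15-residue peptides over residues 30-55 of Trypanosoma cruzi TSSAII, each with 1 to 10 substitutions at naturally variable positions, probed with one serum pool per country.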

[2] = system: pooled sera of chronic Chagas disease patients, Bolivia
Method: as §1

[3] = system: pooled sera of chronic Chagas disease patients, Brazil
Method: as §1

[4] = system: pooled sera of chronic Chagas disease patients, Colombia
Method: as §1

[5] = system: pooled sera of chronic Chagas disease patients, Mexico
Method: as §1

[6] = system: pooled sera of chronic Chagas disease patients, USA
Method: as §1

[7] = system: pooled sera of uninfected people, Argentina
Method: as §1

[8] = system: pooled sera of uninfected people, Bolivia
Method: as §1

[9] = system: pooled sera of uninfected people, Brazil
Method: as §1

[10] = system: pooled sera of uninfected people, Colombia
Method: as §1

[11] = system: pooled sera of uninfected people, Mexico
Method: as §1

[12] = system: pooled sera of uninfected people, USA
Method: as §1

Sequence	antibody binding signal [1]	antibody binding signal [2]	antibody binding signal [3]	antibody binding signal [4]	antibody binding signal [5]	antibody binding signal [6]	antibody binding signal [7]	antibody binding signal [8]	antibody binding signal [9]	antibody binding signal [10]	antibody binding signal [11]	antibody binding signal [12]
SGKEKKTATGETPSQ	3380	377	4680	1510	2080	8650	347	257	107	136	198	75.5
TSSTPPSGTEKKAAA	37500	4710	34900	1060	14300	4640	2220	357	174	218	104	643
PSGTDKKAAAGEAPS	2570	627	9590	6760	2380	11200	197	512	192	387	1710	250
ENKPAAGGAPSQSGA	352	2800	4910	1320	575	942	248	330	304	146	145	267
DNKAAAGGAPSQPGA	342	930	13300	3240	455	297	344	451	302	365	739	282
DNKTAAGGAPSPSGA	335	417	506	6190	587	518	406	404	633	301	776	211
KKAATGGAPSQSGAS	1010	495	463	458	578	717	327	222	131	220	260	223
STPPSGKDKKTAAGE	10500	3700	3900	572	36200	1840	388	525	390	231	113	128
GKEKKTATGGAPSQS	3100	345	1900	3120	4210	3870	213	110	97.9	77.8	117	83.9
DKKAATGGTPSQPGA	557	697	975	1700	590	1100	454	125	739	1040	496	286
GKEKKAATGETPSQS	13400	1070	8530	7340	9730	10500	342	117	97.5	215	107	109
EKKAATGGAPSPSGA	1040	260	853	2430	2080	1350	412	1210	120	943	167	560
SGTDNKTATGETPSQ	667	1540	41000	191	177	7500	99.6	611	1010	150	115	219
EKKAATGGAPSQSGA	1050	258	754	1170	1580	941	386	1220	140	1070	219	552
KDNKPAAGGAPSQPG	189	215	12800	755	152	250	449	202	132	148	218	127
KAATGGTPSQSGASS	536	335	302	396	358	194	506	157	232	125	207	167
NKTATGETPSPPGAS	361	1230	5250	292	294	5870	613	1220	366	641	197	2020
TENKTATGGAPSQPG	22300	1800	5040	422	420	880	319	174	336	137	545	181
TENKPATGEAPSQSG	46600	48500	51000	314	689	41400	1040	811	343	119	285	167
KENKPATGGAPSPSG	540	1850	2900	202	636	2560	366	806	133	110	124	190
